The full ranking holds about 33,000 sequences; the median of “E-score (-0.5 to 0.5)” is about -0.032, and the highest 2% start at about 0.36. Some of the results follow.
target: T1, Sko1 (UniProt Q02100); assay: PBM E-score (8-mer binding enrichment) (E-score (-0.5 to 0.5)); higher = stronger / more preferred TF binding; most listed sequences are background and not binding sites; details: protein concentration: 200 nM; construct: GST-full length
T1 sequence: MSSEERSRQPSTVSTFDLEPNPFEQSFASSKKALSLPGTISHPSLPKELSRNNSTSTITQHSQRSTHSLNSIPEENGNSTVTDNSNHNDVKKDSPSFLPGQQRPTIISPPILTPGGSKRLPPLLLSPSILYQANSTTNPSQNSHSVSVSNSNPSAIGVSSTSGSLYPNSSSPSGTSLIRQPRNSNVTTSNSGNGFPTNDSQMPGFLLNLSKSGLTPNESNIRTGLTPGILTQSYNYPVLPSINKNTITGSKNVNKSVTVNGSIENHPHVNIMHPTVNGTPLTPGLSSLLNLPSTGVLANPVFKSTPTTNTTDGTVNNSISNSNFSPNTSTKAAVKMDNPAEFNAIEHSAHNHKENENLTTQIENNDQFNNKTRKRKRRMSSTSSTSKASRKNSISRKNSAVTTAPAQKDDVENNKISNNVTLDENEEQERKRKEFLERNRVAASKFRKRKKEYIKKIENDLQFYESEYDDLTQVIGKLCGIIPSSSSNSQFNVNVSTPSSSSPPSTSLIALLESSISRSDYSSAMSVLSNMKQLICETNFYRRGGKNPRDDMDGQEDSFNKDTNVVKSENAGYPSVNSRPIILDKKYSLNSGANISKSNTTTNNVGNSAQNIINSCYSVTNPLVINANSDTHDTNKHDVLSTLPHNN
Description: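 Universal 'all 10-mer' protein binding microarrays (Agilent AMADID 015681) probed with GST-tagged S. cerevisiae TFs (full-length or DBD) made by in vitro transcription/translation (PURExpress), about 100-200 nM. Bound TF was detected with fluorescent anti-GST. Each ungapped 8-mer (which stands for itself and its reverse complement) is scored by the PBM enrichment score (E-score), a modified Wilcoxon-Mann-Whitney statistic from -0.5 to +0.5, computed with the Universal PBM Analysis Suite. Scale: above 0.35 generally sequence-specific binding.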

Sequence	PBM E-score
GCACTACA	-0.0138
AATATCTG	-0.053
CACTGGGA	-0.0437
TAGTTCCA	-0.0377
AATGGTGC	-0.0923
AGGGGGGA	-0.229
ATTCTTCA	-0.0499
CGGTACAC	-0.195
GACTGATA	-0.144
AGCTCCGC	-0.111
ACTAACGC	0.0897
AACAAGAC	0.0336
ACTGAACC	-0.241
CTGATGTC	0.173
GGGCATCA	0.0423
AACGGCGA	0.00837
ATCTTAAC	0.24
CAAAAAGC	0.0208
CGCGCGGC	0.164
ATTGTCCA	-0.0062
AGGTTTAG	-0.0336
AACAATTC	0.0554
CAGGTCTC	-0.279
TATCCCGA	0.0654
CCTGGCAC	-0.224

Sequence	PBM E-score
AATTAGTG	0.159
CTATTAAA	0.0923
TCGTTCAA	-0.0129
GAATCCCA	-0.105
CAGGGCCG	-0.162
AGTATAAC	0.0724
CGGAGTCA	-0.0951
GGTTAACA	0.0946
CCCGGCTA	-0.309
ATTGCTGC	-0.0462
CAACCCTC	-0.178
ACCTTAGA	0.0372
AGAAGCTG	-0.0693
AGGATGCC	-0.211
ACAGATTA	0.032
AGTAGAAC	-0.0441
ATCATAAC	0.301
GGATCTTA	-0.0116
CCAGTAGA	-0.0456
CTAGAAGC	-0.181
AGCATTCG	-0.0192
AATGTGCG	0.222
ACAAAGGC	-0.202
AGAACATC	0.0232
GGCACTGA	-0.0952

Sequence	PBM E-score
AGCTTCTG	-0.26
CTAACTTC	0.0478
AACGTGCC	0.167
GCTTCAAA	-0.227
GGACCTCA	-0.0759
ATGAGGGC	-0.142
AGCTTAAA	-0.0733
CGGTAAGC	-0.122
AACCTATG	0.128
GTCGCGAC	0.205
CCGCAAGC	-0.232
CTTAGCAA	-0.0104
CACGTGCA	0.329
ACTGATTC	0.0353
GAAATTCA	0.0854
GACATAAC	0.202
CACAGAGC	0.0302
AGATTTTG	0.06
AGTGTAGG	-0.0121
ACTCAAGT	-0.00867
GGGCTACA	-0.311
TGCGGACA	-0.0412
GCGCTTAC	0.143
AACAACAT	0.0743
CACCCGCA	-0.151

Sequence	PBM E-score
CCTTAATC	-0.129
CGCTGCTC	-0.254
AAATTCGC	0.177
CCGACAGG	0.00928
ATCGCGTG	0.242
CAATACAG	-0.0302
CTACAATC	0.144
CTTTGGAA	-0.0181
CGGATATA	0.15
CAACGCCC	-0.239
CGGCTTGA	-0.0312
TAAACAAA	0.119
CCAGCACC	-0.324
CCTTACCA	-0.026
AATGTTAT	0.0252
ACCACCCC	-0.178
ACTTAAAG	0.0316
CTGTTAAC	0.0989
CACCTCTA	-0.0273
CGATCAGC	-0.111
AAGGTTAG	-0.0927
GGCCAGTA	-0.113
AGATCCCG	-0.0957
CGTATTTA	0.419
CAGGGCCC	-0.286

Sequence	PBM E-score
ACTCTCAA	-0.00162
AGGCTACA	-0.209
GGCCTCCC	-0.336
ACTCCCAT	-0.0603
AGAATTCA	-0.00015
CTTCTGGA	-0.187
ACTGCAGT	-0.105
TGCTTCCA	-0.067
AGGGCCAG	-0.407
ACACATTG	0.0485
ACGAACAT	0.189
CGCTGTAA	0.0521
ATTTTCGG	0.0716
ATTGACTG	-0.0166
TTATACAA	0.21
CCGGGACG	-0.265
CATCTCCA	-0.0921
GGGATTAA	-0.0784
ATAAGGAA	-0.11
GTCATCTA	0.353
GACATGCC	-0.11
AGAAATCT	0.0372
GTGTTGCA	0.109
AGCCCTAC	-0.00618
CAATAGCG	0.0227

Sequence	PBM E-score
CTATTAAC	0.108
TGGGAGAA	-0.0868
ACATCCGC	-0.124
ATCAGCCG	-0.146
ACTCCCAG	-0.212
ACAGGATG	-0.0946
CATCCGAC	-0.102
ACAGGAGA	-0.0703
CTCCGTGC	-0.255
ACAGGGAC	-0.0907
AGATAGAA	-0.0114
ATCAACAG	0.08
TAAACCCA	0.156
CTTATCGA	0.0311
GGTATATA	0.189
AGCTCCAT	0.0478
ACACTATA	0.127
GTCTATAA	0.142
CATGAGGC	-0.204
AAGATAGG	-0.131
ATTGGGGC	-0.148
AAGGCCCG	-0.32
AGCATATG	-0.0821
ACAAATCG	0.0878
GCGATGCC	-0.215

Sequence	PBM E-score
GTGAGCAA	0.0421
CCCCTCAC	-0.132
CCTAGGAC	-0.29
GAGTCAGC	0.0517
AGACATGA	0.0292
GGAACTTA	0.0286
GCTTCTGA	-0.0487
ATTCACAC	0.105
GCTACGCA	0.294
AAGAGCGT	0.0353
ACCAGGAC	-0.205
ACAAGAAA	0.113
AGAATGAG	0.0649
AGGCGAGA	-0.208
CGTAGGAC	0.0514
CCTTTCTA	0.0431
GACACAAA	0.141
CTCGTGCA	-0.0967
CGGAATCC	-0.2
AATCCATA	0.0971
CGCGATAC	0.194
GCTTACTA	0.00391

From the supplement of paper PMC3334620
